# Data from PubChem BioAssay (NCATS).
# Where “and” joins values, the source holds several entries; their conditions need not be identical. Identical values can stand only once. Inconclusive means that the source gave no clear call. Such entries were picked first, then a sample of the others. For some of these results: A potency beside an inconclusive call is a rough fit, not a confirmed value. Calls of active or inactive are those of the source. The call rests on the fitted dose curve; in most records, active means well fitted curve in the direction sought with a large enough effect; inconclusive means small, poorly fitted or top-dose-only effect, or another doubt; inactive means no such curve, though single readings can be large; an effect the other way counts as inactive or inconclusive.
# Key:
# [1] = tested on: CASKI; test: Primary qHTS to identify gynecologic anti-cancer compounds using libraries of approved drugs and bioactive compounds (AID 1345084); conditions: Gynecologic cancer cell panel viability, ATPlite luminescence, 48 h; series mostly up to 57.5 µM; further: nearly all actives have a fitted effect of over 55% in size
# In short: (§1)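 Luminescence from the ATPlite ATP-monitoring reagent indicates viable cell number; lower signal means cytotoxicity. Cells received compound 16 h after seeding and were exposed for 48 h across five concentrations.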
# [2] = tested on: PA-1; test: as above; conditions: Gynecologic cancer cell panel viability, ATPlite luminescence, 48 h; series mostly up to 57.5 µM
# In short: as §1
# [3] = qHTS assay to identify inhibitors of the type 1 interferon - major histocompatibility complex class I in skeletal muscle: Counter screen cell viability and HiBit confirmation (AID 1347412); conditions: iHSKM muscle cells + IFN-b, HiBiT or CellTiter-Glo, 24 h; further: nearly all actives have a fitted effect of over 60% in size
# In short: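 HLA-B*08:01–HiBiT knock-in immortalized human myoblasts (C25cl48) stimulated with 4.0 ng/ml human IFN-beta and dosed with compound in a 12-point 1:3 titration (top final 46 uM). After 24 hrs at 37 C, HiBiT lytic luminescence or CellTiter Glo ATP read out.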
# [4] = qHTS Assay for Identifying Gametocytocidal Compounds (AID 743244); conditions: P. falciparum 3D7 stage III-V gametocytes, alamarBlue, 72 h; max response: active compounds read low
# In short: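 Compounds are pinned into medium, gametocytes (stage III–V, 3D7, 20,000 cells/well) added, and plates held 72 h at 37 °C in 5% CO2. AlamarBlue follows for 24 h before fluorescence reading.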
# [5] = qHTS of pediatric cancer cell lines to identify multiple opportunities for drug repurposing: Primary screen for SK-N-MC cells (AID 1347093); conditions: SK-N-MC viability, CellTiter-Glo luminescence, 48 h; activity change, negative = cytotoxic: at 46 µM (top of the series)
# In short: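 Metabolically active cells were quantified by ATP-dependent luminescence (CellTiter-Glo, 15 min at room temperature) following 48 h treatment. Cells had been plated at 500-1,000 per well and settled for 5 h beforehand.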
# [6] = Quantitative High-Throughput drug screen in 47 multiple myeloma cell lines against the NCATS MIPE library collection: AMO1_DSMZ cell viability assay (AID 1918927; further: nearly all actives have a fitted effect of over 30% in size)
# In short: (§2)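 Steps: seed 500 cells per well; pin-transfer MIPE 4.0 library; incubate 48 h at 37C, 5% CO2, humidified; add CellTiter-Glo, 5 min room temperature; read luminescence.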
# [7] = Quantitative High-Throughput drug screen in 47 multiple myeloma cell lines against the NCATS MIPE library collection: Karpas620_DSMZ cell viability assay (AID 1918959); further: nearly all actives have a fitted effect of over 30% in size
# In short: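 Approved and investigational drugs from MIPE 4.0 were added by pin tool to 500 cells per well. After 48 hours at 37C, ATP-based CellTiter-Glo luminescence indicated remaining viability.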
# [8] = Quantitative High-Throughput drug screen in 47 multiple myeloma cell lines against the NCATS MIPE library collection: KMM1_JCRB cell viability assay (AID 1918960); further: nearly all actives have a fitted effect of over 30% in size
# In short: (§3)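 500 cells/well; MIPE 4.0 library pinned in; 48 h, 37 °C, 5% CO2; CellTiter-Glo ATP luminescence. Controls: DMSO = 100% viability, medium only = 0%.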
# [9] = Quantitative High-Throughput drug screen in 47 multiple myeloma cell lines against the NCATS MIPE library collection: KMS12BM_JCRB cell viability assay (AID 1918971); further: nearly all actives have a fitted effect of over 35% in size
# In short: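 Luminescent ATP measurement with CellTiter-Glo gives viability, scaled between DMSO-only wells (100%) and media-only wells (0%). Cells, 500 per well, faced library compounds for 48 hours at 37C.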
# [10] = Quantitative High-Throughput drug screen in 47 multiple myeloma cell lines against the NCATS MIPE library collection: PCM6_Riken cell viability assay (AID 1919870); further: nearly all actives have a fitted effect of over 30% in size
# In short: (§4)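 ATP-based luminescence (CellTiter-Glo, 5 min RT incubation) quantified surviving cells following two days' treatment with MIPE 4.0 agents at 37 °C, 5% CO2.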
# [11] = Quantitative High-Throughput drug screen in 47 multiple myeloma cell lines against the NCATS MIPE library collection: KMS11_JCRBsus cell viability assay (AID 1919873); further: nearly all actives have a fitted effect of over 50% in size
# In short: as §4
# [12] = tested on: OV90; test: Primary qHTS to identify gynecologic anti-cancer compounds using libraries of approved drugs and bioactive compounds (AID 1345084); conditions: Gynecologic cancer cell panel viability, ATPlite luminescence, 48 h; series mostly up to 57.5 µM; further: nearly all actives have a fitted effect of over 55% in size
# In short: as §1
# [13] = Quantitative High-Throughput drug screen in 47 multiple myeloma cell lines against the NCATS MIPE library collection: KMS12PE_JCRB cell viability assay (AID 1918972); further: nearly all actives have a fitted effect of over 30% in size
# In short: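 Inhibition of cell viability is measured here. Each line was plated at 500 cells per well, treated with MIPE 4.0 drugs, kept 48 hours at 37C, then assayed for ATP content by CellTiter-Glo luminescence.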
# [14] = Quantitative High-Throughput drug screen in 47 multiple myeloma cell lines against the NCATS MIPE library collection: U266_ATCC cell viability assay (AID 1919864); further: nearly all actives have a fitted effect of over 35% in size
# In short: as §4
# [15] = tested on: Zika virus NS2B-NS3 protease; test: Primary screen GU AMC qHTS for Zika virus inhibitors (AID 1347154); further: nearly all actives have a fitted effect of over 70% in size
# In short: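 Fluorogenic AMC-substrate cleavage by noncovalent NS2B-NS3 protease complex (25 nM, pH 8.0 Tris buffer with Tween 20) followed for 15 minutes at room temperature (~20% conversion). Percent inhibition from ex340/em450 signal change, fitted by 4-parameter Hill equation.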
# [16] = Primary qHTS for small molecule stabilizers of the endoplasmic reticulum resident proteome: Secreted ER Calcium Modulated Protein (SERCaMP) assay (AID 1508630); conditions: SH-SY5Y GLuc-SERCaMP (Gaussia luciferase released on ER calcium loss) secretion, thapsigargin, luminescence; series mostly up to 38.4 µM
# In short: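 The SH-SY5Y reporter protocol was run at 3 concentrations up to 38.3 uM (primary) or 11 concentrations (follow-up): 16 h compound, 100 nM thapsigargin for 4 h, then extracellular luciferase luminescence.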
# [17] = Quantitative High-Throughput drug screen in 47 multiple myeloma cell lines against the NCATS MIPE library collection: ARP1_JJKsccF8 cell viability assay (AID 1918928; further: nearly all actives have a fitted effect of over 40% in size); conditions: ARP1 myeloma cells viability, CellTiter-Glo ATP, 48 h; viability: at 45.8 µM (top of the series)
# In short: as §3
# [18] = Quantitative High-Throughput drug screen in 47 multiple myeloma cell lines against the NCATS MIPE library collection: RPMI8226_ATCC cell viability assay (AID 1919871); further: nearly all actives have a fitted effect of over 30% in size
# In short: as §4
# [19] = qHTS of pediatric cancer cell lines to identify multiple opportunities for drug repurposing: Primary screen for RD cells (AID 1347104); further: nearly all actives have a fitted effect of over 55% in size
# In short: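 Viability was measured as metabolically active cells after 48 hours of treatment, read by CellTiter-Glo luminescence. Compounds were tested at multiple final concentrations, giving concentration-response curves.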
# [20] = Quantitative High-Throughput drug screen in 47 multiple myeloma cell lines against the NCATS MIPE library collection: EJM_DSMZ cell viability assay (AID 1918926; further: nearly all actives have a fitted effect of over 30% in size)
# In short: as §2
# Potency means the concentration at half of the fitted maximal effect; tags describe the fitted curve by direction and shape.
smiles,measurement,setting,value
CCOc1cc2ncc(C#N)c(Nc3ccc(OCc4ccccn4)c(Cl)c3)c2cc1NC(=O)/C=C/CN(C)C,Potency,[1],"inconclusive: 0.316 µM [cytotoxic, full curve]"
same,Potency,[2],"inconclusive: 2.24 µM [cytotoxic, full curve, poor fit]"
same,Potency,[3]; Viability,"inconclusive: 27.9 µM [cytotoxic, partial curve]"
Cn1c(=O)n(-c2ccc(C(C)(C)C#N)cc2)c2c3cc(-c4cnc5ccccc5c4)ccc3ncc21,Potency,[4],"inconclusive: 46.9 µM [inhibitor, single point]"
same,Potency,[5],"inconclusive: 0.0235 µM [cytotoxic, full curve, poor fit]"
same,Potency,[6],"inconclusive: 0.0209 µM [cytotoxic, full curve]"
same,Potency,[7],"inconclusive: 5.26 µM [cytotoxic, partial curve]"
same,Potency,[8],"inconclusive: 0.209 µM [cytotoxic, full curve]"
same,Potency,[9],active: 0.0132 µM
same,Potency,[10],"inconclusive: 0.418 µM [cytotoxic, full curve]"
same,Potency,[11],"inconclusive: 0.0083 µM [cytotoxic, full curve]"
same,Potency,[1],"inconclusive: 3.55 µM [cytotoxic, partial curve, poor fit]"
same,Potency,[12],active: 1.41 µM
same,Potency,[2],"inconclusive: 0.501 µM [cytotoxic, full curve]"
same,Potency,[3]; HiBiT,"inconclusive: 0.157 µM [inhibitor, full curve]"
same,Potency,[3]; Viability,"inconclusive: 0.125 µM [cytotoxic, full curve]"
c1cc(-c2cnn3cc(-c4ccc(OCCN5CCCCC5)cc4)cnc23)ccn1,Potency,[6],"inconclusive: 0.0059 µM [cytotoxic, full curve, poor fit]"
same,Potency,[9],active: 16.6 µM
same,Potency,[13],inactive
same,Potency,[14],active: 13.2 µM
same,Potency,[10],active: 1.87 µM
same,Potency,[11],"inconclusive: 1.05 µM [cytotoxic, full curve, poor fit]"
CCN(CCCO)CCCOc1ccc2c(Nc3cc(CC(=O)Nc4cccc(F)c4)[nH]n3)ncnc2c1,Potency,[4],active: 0.743 µM
Cc1cc(-c2nnc3n2CCCCC3)c(C)n1-c1ccc(F)cc1,Potency,[4],active: 18.7 µM
COc1cc2c(Oc3ccc(-c4cnc(Nc5ccc(F)cc5)n(C)c4=O)cc3F)ccnc2cc1OCCCN1CCOCC1,Potency,[5],active: 0.833 µM
same,Potency,[15],active: 24.1 µM
same,Potency,[16],inactive
same,Potency,[17],active: 8.33 µM
same,Potency,[7],active: 2.96 µM
same,Potency,[10],active: 7.43 µM
same,Potency,[18],active: 5.9 µM
same,Potency,[2],"inconclusive: 35.5 µM [cytotoxic, single point]"
COc1ccc(COc2cc3oc(=O)c4cc(C(C)O)ccc4c3cc2OC)cc1 (centres undefined),Potency,[5],"inconclusive: 16.6 µM [cytotoxic, partial curve, poor fit]"
same,Potency,[19],"inconclusive: 16.6 µM [cytotoxic, partial curve]"
same,Potency,[15],"inconclusive: 12.1 µM [inhibitor, partial curve]"
same,Potency,[17],"inconclusive: 23.5 µM [cytotoxic, partial curve, poor fit]"
same,Potency,[13],active: 2.64 µM
same,Potency,[10],"inconclusive: 10.5 µM [cytotoxic, partial curve, poor fit]"
same,Potency,[11],"inconclusive: 16.6 µM [cytotoxic, partial curve, poor fit]"
COc1ccc(C=Cc2cc(OC)c(OC)c(OC)c2)cc1O,Potency,[15],"inconclusive: 1.52 µM [inhibitor, partial curve, poor fit]"
same,Potency,[20],inactive
same,Potency,[9],"inconclusive: 0.0037 µM [cytotoxic, full curve]"
same,Potency,[14],inactive
same,Potency,[18],"inconclusive: 0.0019 µM [cytotoxic, full curve]"
same,Potency,[11],inactive
Nc1nc(Cl)nc2c1ncn2[C@H]1C[C@H](O)[C@@H](CO)O1,Potency,[20],"inconclusive: 14.8 µM [cytotoxic, partial curve]"
same,Potency,[6],active: 0.187 µM
same,Potency,[17],"inconclusive: 0.935 µM [cytotoxic, full curve]"
same,Potency,[7],"inconclusive: 5.9 µM [cytotoxic, partial curve, poor fit]"
same,Potency,[8],"inconclusive: 0.235 µM [cytotoxic, full curve]"
same,Potency,[13],active: 0.0372 µM
same,Potency,[14],"inconclusive: 33.2 µM [cytotoxic, single point]"
same,Potency,[10],"inconclusive: 4.69 µM [cytotoxic, partial curve]"
Cc1cccc(C=NNc2cc(N3CCOCC3)nc(OCCc3ccccn3)n2)c1,Potency,[5],"inconclusive: 33.2 µM [cytotoxic, partial curve, poor fit]"
same,Potency,[19],"inconclusive: 0.935 µM [cytotoxic, full curve]"
same,Potency,[20],"inconclusive: 14.8 µM [cytotoxic, partial curve]"
same,Potency,[6],"inconclusive: 4.69 µM [cytotoxic, partial curve, poor fit]"
same,Potency,[17],"inconclusive: 1.05 µM [cytotoxic, full curve]"
same,Potency,[8],"inconclusive: 0.526 µM [cytotoxic, partial curve, poor fit]"
same,Potency,[9],active: 14.8 µM
same,Potency,[10],"inconclusive: 14.8 µM [cytotoxic, partial curve]"
same,Potency,[18],active: 18.7 µM
COC(=O)C1=C(C)NC(C)=C(C(=O)OCCCN2CCC(c3ccccc3)(c3ccccc3)CC2)[C@H]1c1cccc([N+](=O)[O-])c1,Potency,[4],active: 14.8 µM
same,Potency,[16],"inconclusive: 6.31 µM [inhibitor, partial curve, poor fit] and inconclusive: 10 µM [inhibitor, partial curve, poor fit]"
